Among all 52,000 compounds or so, about 4,300 (8.3%) were called active. No stated cut-off is given here; in the data, active means survival mostly below about 52% (no sharp cut-off); inactive means mostly above about 56%. This is one part of the list.
The molecules below were run on DeltatarO mutant (assay: growth inhibition of S. aureus wild type versus tarO mutant, primary screen, teichoic acid synthesis inhibitors, RN4220, OD600 (AID 463173)). Settings: OD600, 18 h, hits give low values, screened at 18.75 µg/mL (by protocol).

Compound	survival
CCOCCCNc1ccc(-c2ccccc2)nn1	inactive: 97%
CCOc1ccc(CNC(=O)C2CCCN(S(=O)(=O)c3ccc4c(ccn4C)c3)C2)cc1 (stereo unspecified)	inactive: 92%
Cc1ccccc1-n1c(SCc2ccc(Cl)cc2)nc2[nH]ncc2c1=O	inactive: 92%
COc1cccc(N2CCN(C(=O)CCc3c(C)nc4c(c3C)c(=O)n(C)c(=O)n4C)CC2)c1	inactive: 98%
CCC(C)NC(=O)c1ccc2c(c1)N(Cc1ccccc1)C(=O)c1ccccc1S2 (stereo unspecified)	inactive: 92%
CCOC(=O)c1cccnc1SCC(=O)Nc1ccc(C)cc1C	inactive: 79%
Cc1ccc2c(c1)-c1c(cnc3cc(-c4ccccc4)nn13)CO2	inactive: 69%
CCCCc1ccc(NC(=O)c2ccc(=O)n(Cc3cccc(C)c3)c2)cc1	inactive: 78%
CN(C)CCNC(=O)c1ccc2c(=O)n3c(nc2c1)CCCCC3	inactive: 125%
COc1ccc(-c2nc(C)c(CCNS(=O)(=O)c3cc(C)c(C)cc3C)s2)cc1	inactive: 72%
O=C(NCCc1ccccc1)c1nnc(Cc2cccc(F)c2)o1	inactive: 106%
COc1ccc(-c2nc(CN3CCC(C(=O)NCc4ccccc4)CC3)c(C)o2)cc1OC	inactive: 104%
Cn1nnc2c(N3CCN(c4ccccc4Cl)CC3)ncnc21	inactive: 69%
COc1ccc(-c2c3c(=O)n(C)c(=O)n(C)c3c3c(C)nc4ccccc4n23)cc1	inactive: 79%
CC(C)(C)c1ccc(-c2nc(SCCCOc3ccccc3)n3[nH]c(=O)cc3n2)cc1	inactive: 70%
CCOC(=O)Cn1c(=O)n(-c2ccccc2OC)c2nc(-c3cccc(F)c3)nc(C(N)=O)c21	inactive: 64%
Cc1ccc(-c2nnc(SCc3cccc(C#N)c3)o2)cc1	inactive: 62%
CCOC(=O)c1ccccc1NC(=O)N(C(C)C)C1CCN(C(C)=O)CC1	inactive: 73%
CCOC(=O)C1CCN(C(=O)Cn2c(=O)oc3cc(S(=O)(=O)N4CCC(C)CC4)ccc32)CC1	inactive: 133%

Compound	survival
Cc1ccc(Cn2nnnc2CN2CCC(NC(=O)C(C)(C)C)CC2)cc1	inactive: 81%
CC(=O)N1CCc2c(sc3c2c(=O)n(CCc2ccccc2)c(=O)n3Cc2ccc(Cl)cc2)C1	inactive: 70%
Cc1ccccc1NC(=O)CSc1nc2c(c(=O)n(C)c(=O)n2C)n1Cc1ccccc1F	inactive: 56%
O=C(C1CCCCC1)N1CCN(c2ncnc3c2cnn3-c2ccccc2)CC1	inactive: 101%
Cc1cc2c(cc1S(=O)(=O)N1CCCCC1)OCC(=O)N2	inactive: 106%
CCOCCCNc1ncnc2c1cnn2-c1ccc(C)c(C)c1	inactive: 84%
COCCNC(=O)Cn1c(=O)n(CCCCCC(=O)NCc2ccc3c(c2)OCO3)c(=O)c2sccc21	inactive: 79%
O=C(CCS(=O)(=O)c1cccs1)Nc1ccc(C(=O)Nc2ccccc2F)cc1	inactive: 135%
CCSc1ncc(Cl)c(C(=O)Nc2ccc(S(=O)(=O)N3CCCCC3)cc2)n1	inactive: 87%
CCOc1ccc(NC(=O)Cn2c(=O)n(-c3cccc(OC)c3)c(=O)c3c4c(sc32)CCCC4)cc1	inactive: 95%
COc1ccc(Cl)cc1NS(=O)(=O)c1ccc2c(c1)NC(=O)CC(=O)N2	inactive: 88%
CCCCN(CCCC)CCNC(=O)c1cn(CC)c2ccc(S(=O)(=O)N(C)C3CCCCC3)cc2c1=O	inactive: 144%
Cc1ccc(C)c(Cn2cc(S(=O)(=O)c3ccc(Cl)cc3)c(=O)c3cc(F)ccc32)c1	inactive: 71%
CCc1ccc(NC(=O)c2ccc3[nH]c(C)c(C)c3c2)cc1	inactive: 129%
CCN(Cc1ccccc1)C(=O)CN(c1ccc(OC)cc1)S(=O)(=O)c1c(C)nn(C)c1C	inactive: 69%
O=C1OC(c2ccccc2)=C/C1=C/c1ccco1	inactive: 95%
CCCNC(=O)c1ccc2nc(CCc3ccccc3)oc2c1	inactive: 78%
Cc1cc(C)cc(S(=O)(=O)c2cn(C)c3cc(N4CCCC4)c(F)cc3c2=O)c1	inactive: 72%
CCc1ccc(NC(=O)CSC2=Nc3ccccc3C3=NC(CCC(=O)NCc4ccco4)C(=O)N23)cc1 (stereo unspecified)	inactive: 93%

Compound	survival
COc1ccc(C(=O)n2nc(-c3ccco3)nc2NCc2cccs2)cc1OC	inactive: 91%
CCc1ccccc1NC(=O)N(C)CCc1c(C)nn(C)c1C	inactive: 107%
Cc1ccc(-c2nc3sc(CCNC(=O)c4ccc(C)c(C)c4)c(C)n3n2)cc1	inactive: 72%
COc1ccc(-c2nc(CSc3nncn4c3cc3sccc34)c(C)o2)cc1OC	inactive: 81%
O=C(CN1C(=O)CCc2cc(S(=O)(=O)N3CCOCC3)ccc21)NCc1ccccc1	inactive: 73%
CCNc1nc(OC)nc(Oc2ccc(=O)[nH]n2)n1	inactive: 63%
CC(C)(C)c1ccc(S(=O)(=O)N2CCN(Cc3noc(CCC(=O)N4CCCCC4)n3)CC2)cc1	inactive: 67%
CCc1cnc2c(c1SCC(=O)N1CCCCC1)c(=O)n(C)c(=O)n2C	inactive: 89%
CCCCOc1ccc(C(=O)NCCS(=O)(=O)N2CCN(c3ccc(F)cc3)CC2)cc1	inactive: 91%
CCOc1ccc(CNCc2c(C(=O)O)n(Cc3ccccc3F)c3cc(OC)ccc23)cc1	inactive: 92%
CCC(=O)N1CCc2cc(Br)cc(S(=O)(=O)N3CCC(C(=O)Nc4ccc(OC)cc4)CC3)c21	active: 8%
COc1ccc(-c2cc(C(=O)O)n(Cc3ccccc3)n2)cc1	inactive: 76%
O=C(CSc1nc2ccccc2nc1Cc1ccccc1)NCc1ccccc1Cl	inactive: 113%
Cc1cc(C)c(NC(=O)Cn2c(=O)n(CC(=O)NCc3ccccc3Cl)c(=O)c3sccc32)c(C)c1	inactive: 171%
CC(=O)c1cc2c(cc1N/C(=N/S(=O)(=O)c1ccc(C)cc1)c1ccccc1)OCO2	inactive: 74%
COC(=O)C(NC(=O)CC(C)C)(Nc1nc2c(s1)CCCC2)C(F)(F)F (stereo unspecified)	inactive: 120%
Cc1cccc2nc(-c3ccco3)c(Nc3ccc4c(c3)OCO4)n12	inactive: 79%
CCOC(=O)C1CCCN(S(=O)(=O)c2ccc(F)c(C(=O)Nc3ccc(F)c(F)c3)c2)C1 (stereo unspecified)	inactive: 77%

Source: PubChem BioAssay AID463173 (ICCB-Longwood Screening Facility, Harvard Medical School, 2010)
